According to the supplement of paper PMC3724861:
This is one part of the list.

Test system: T1, Caupolican (Caup) homeodomain DNA-binding domain
T1 sequence: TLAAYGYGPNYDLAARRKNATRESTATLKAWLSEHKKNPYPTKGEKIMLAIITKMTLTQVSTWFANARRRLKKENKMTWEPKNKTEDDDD
Experiment: PBM E-score (8-mer, recovered from the published 9-mer minima) (E-score (dimensionless, -0.5 to 0.5)); Drosophila protein; higher = stronger relative binding preference, active = 0.31 or more
In short: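 Caup's homeodomain DNA-binding domain (residues 214-303) was made by in vitro transcription and translation and applied at 100 nM to custom-designed protein binding microarrays. Each value is an enrichment score that gives relative binding preference for a short DNA word, with higher meaning stronger. The 8-mer values were recovered from published 9-mer scores, each of which was the minimum of its two constituent 8-mer scores. A cutoff of 0.31 marks candidate sites.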

PBM E-score, ≥ -0.0927:
ACCCCGGA

PBM E-score, ≥ 0.127:
ACCATAAA

PBM E-score, inactive:
CGTCCCGC -0.198
AACGTTCG -0.0877
ACTCGTGA 0.0139
ATATTGGC 0.0615
CACCTGCG -0.137
GCATAAAA 0.134
AAGCACCT -0.0929
CCGGGTGA -0.151
CTCGGCAG -0.132
AAGTGCGT -0.0258
AACGTACT 0.139
TCCAATAA 0.0481
GACTGCAA 0.00269
ACACATCC 0.124
ACATAGAC 0.201
CGCCCCGC -0.246
GGTGTTGA 0.0856
AAGGCAAT 0.00024
AAGCCCAG -0.11
ATAGCCTG 0.0385
CTGACAAA 0.132
CAACCACA 0.0655
AAAGGATT 0.0321
ATACTGGA 0.0737
AGCACCGA -0.00623
AAAAGGCA 0.00892
AAAGTGCT 0.0144
GCACTCAA -0.0869
ATATCACG 0.127
CGCATAAA 0.0773
CCTGATTC -0.00755
ATTAAGAC 0.0818
CATTCAGA -0.0203
ATCCGCTA -0.0754
GCGTGTCC 0.223
CATTAACG 0.112
AAGAATCA 0.134
ACCTGGGC -0.195
GGTTGAAC 0.0642
CCCCGGGG -0.3
CAATCCCG -0.047
GAAGCACA 0.0307
ATACCGTG 0.154
ATTTCTAC 0.0511
ACTACTTG 0.262
AACTTAAC 0.0987
GCACGTGA -0.0192
AGGCAGGC -0.23
AGGGTATG 0.0849
ATGGACAA 0.249
AACTGTGG 0.0281
CGGAAAAA 0.0139
ATTATCGC 0.0263
CCAATTCC 0.0217
ATACTCAT 0.167
CGCGTCAG -0.0788
GAGAGGAA -0.0698
AATCAAAT 0.141
ATTTAACA 0.279
AGAAAGGA -0.116
ACCAGAAC 0.0464
CTTCTTCC -0.072
TGAGATCA -0.0367
AGCCAACC -0.104
AAGACGAC 0.0966
ACGTTTGG 0.0157
ACACTGCA 0.0644
ACCGGGGA -0.177
GTGTAAAC 0.293
ATCAGGTG -3e-05
CTAAAGCA 0.00186
AAGGCATC -0.0476
CGAGTGCG -0.0787
AGAGACTC -0.0898
CTAGAGTC -0.084
TCCGAAGA -0.161
CAATACCC 0.0149
ACCGACGG -0.16
CGATGGCA -0.0609
CGCAATAG -0.0611
CTGTGTTC 0.239
AACGCATA -0.0123
CAGAAAGG -0.149
TTACGCAA 0.0821
AGTCACAG 0.0714
CCCCCGCA -0.226
GTACAGTA 0.209
AACAGTGA 0.0473
CTTCAATA 0.12
TGGCGAAA -0.0635
TAGCACAA 0.0785
GCGTCCAA -0.144
GTGATAAA 0.00709
TACGCTCA -0.00447
CGGAGAAC -0.023
CAGGGAAG -0.155
TAAGACTA 0.0925
GAGAATCC -0.145
GAATTTGA -0.00072
GAAGGGAA -0.177
AACTCGAG -0.0398
AAAGATCG -0.0799
CGTCTCAG -0.0946
ACCTCTCC -0.167
CTTAATAC 0.0345
ACAGTGGA 0.0583
CATAGCTC -0.0402
CGAGCGTA -0.0126
CGATGATA 0.0138
CAGGGTCC -0.191
CAGATTAC 0.177
ATTTACCC 0.0529
GGAGTGTA 0.0526
CCCAATAC -0.0626
AAGAACCC -0.0901
TAGACGAA 0.0142
AGAGTGCA 0.0131
GAGTGTCA 0.0896
CTTAAAGA -0.0138
CATAACAG 0.0846
AGGAACGG -0.132
CTTTGGTA -0.118
GCCCACCA -0.195
CCCAAGCG -0.138
CATATGAA 0.0819
GAGATCTA -0.0358
GTACTCGA 0.114
ACGCTCGC -0.12
AGAGTCTG -0.102
GGAGCTAC -0.0961
TAGCCAGA -0.0945
AGCTAATC 0.0404
GTCCACGA -0.0514

PBM E-score, active:
TGTACACA 0.407
ACACATGT 0.372
ATGTATCG 0.337
ACGATGTA 0.36
ATTAACAC 0.326
AACTTGTA 0.364
TGTTACAA 0.42
